Laboratory results reported in PubChem BioAssay AID504832 (National Center for Advancing Translational Sciences (NCATS), 2011).
Where “and” joins values, the source holds several entries; their conditions need not be identical. Identical values can stand only once. The campaign covered roughly 310,000 compounds. About 18,000 (5.8%) were called active. The inconclusive results got no clear call from the source; some entries with a clear call stand among them for comparison. Calls follow the shape of the dose curve; as a rule, active = well fitted inhibition curve with a large enough effect; inconclusive = small, poorly fitted or top-dose-only effect, or another doubt; inactive = no such curve, though single readings can be large or run the other way. No potency is given beside an inconclusive call; the fits are too rough.

test: Primary qHTS for delayed death inhibitors of the malarial parasite plastid, 48 hour incubation; conditions: P. falciparum luciferase growth in erythrocytes; series mostly up to 28.7 µM
Outline: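 Luminescence readout; reporter = integrated firefly luciferase in P. falciparum. RBC culture at 2% hematocrit, 0.1% parasitemia final, 37 C/5% CO2; decreased signal taken as growth inhibition.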
% is scaled to controls: 0 for no effect and ±100 for the full control effect; potency is read from the fitted curve at half-maximal effect; tags tell the direction and shape of the fitted curve.

SMILES | Potency | activity change, negative = inhibition
COc1ccc(CNC(=O)CN2CCN(S(=O)(=O)c3ccccc3)CC2)cc1 | inconclusive [inhibitor, single point] | 
CCSc1ccc2c(c1)N(CCCN1CCN(C)CC1)c1ccccc1S2 | active: 9.28 µM | 
O=C(NCC1CCCO1)C1CCN(C(=O)c2ccc(Cl)cc2)CC1 (configuration not stated) | inactive | 
COc1ccc(S(=O)(=O)N2CC3CCCN3c3cc(C(F)(F)F)ccc32)cc1 (configuration not stated) | inconclusive [inhibitor, single point] | 
CCc1ccc(/C=C2\CN(CC)Cc3c2nc2ccccc2c3C(=O)O)cc1 | inconclusive [inhibitor, single point] | 
Cc1occc(=O)c1OC(=O)Nc1ccccc1 | inactive | 
CCC1CCCCN1C(=O)CCNS(=O)(=O)c1ccc2c(c1)oc(=O)n2C (configuration not stated) | inconclusive [inhibitor, single point] | 
O=C(CSc1nnc(-c2cccnc2)n1Cc1ccco1)N1c2ccccc2Sc2ccccc21 | inconclusive [inhibitor, single point] | 
COc1ccc(C(=O)N=c2sc3ccccc3n2C)cc1 | inactive | 
Cc1ccc(S(=O)(=O)N2CCOCC2)cc1NC(=O)C(c1ccc(Cl)cc1)C(C)C (configuration not stated) | inconclusive [inhibitor, partial curve, poor fit] | 
CSCCC(NC(=O)c1ccccc1)C(=O)N1CCN(C(C)=O)CC1 (configuration not stated) | inconclusive [inhibitor, single point] | 
Cc1ccccc1NC(=O)c1cnc2ccccn2c1=O | inactive | 
CCN(CC)c1ccc(Nc2nc(-c3cccnc3)cs2)cc1 | inconclusive [inhibitor, full curve, poor fit] | 
CCOc1ccc(S(=O)(=O)N(C)c2ccc(OCC(=O)Nc3nc(-c4cc(OC)ccc4OC)cs3)cc2)cc1 | inconclusive [inhibitor, single point] | 
COc1ccc(Nc2ncc(C#N)c(N)n2)c(OC)c1 | inactive | 
COc1cc(Br)cc(-c2nc3c(c(=O)[nH]c(=O)n3Cc3ccccc3)n2C)c1O | inconclusive [inhibitor, single point] | 
CC1CCCN(C(=O)COC(=O)c2ccc3[nH]c4c(c3c2)CCCC4)C1 (configuration not stated) | inactive | 
O=C(Nc1ccc2c(c1)OCCO2)c1cccs1 | inactive | 
COC(=O)[C@@H](NC(=O)NCCC1=CCCCC1)C(C)C | inactive | 
Cc1cccc(Oc2sc(C(=O)c3ccccc3)c(N)c2C#N)c1C | inconclusive [inhibitor, partial curve, poor fit] | 
Cn1nc(-c2ccccc2)cc1NC(=O)Nc1ccc(C(C)(C)C)cc1 | inconclusive [inhibitor, partial curve, poor fit] | 
COc1ccc(NS(=O)(=O)c2ccc(OCC(=O)N3CCOCC3)cc2)cc1 | inactive | 
Cc1cc(Cl)ccc1NC(=O)CN1C(=O)NC2(CCCc3ccccc32)C1=O (configuration not stated) | inconclusive [inhibitor, single point] | 
CN1CCc2nc(SCc3ccccc3Br)c(C#N)cc2C1 | inconclusive [inhibitor, single point] | 

SMILES | Potency | activity change, negative = inhibition
O=C(c1ccc(COc2ccccc2Br)o1)N1CCN(c2ccccn2)CC1 | inactive | 
O=C(CCn1c(=S)[nH]c2ccccc2c1=O)Nc1ccc(F)cc1 | inconclusive [inhibitor, single point] | 
COc1ccc(-n2c(COc3ccc4ccccc4c3)nnc2SCC(=O)NCc2ccco2)cc1 | active: 10.4 µM | 
CC(CN1CCCCC1)OC(=O)c1ccco1 (configuration not stated) | inactive | 
CN(C)C(=O)C1C2NC(=S)N(c3ccccc3)C1(C)Oc1ccccc12 (configuration not stated) | inactive | 
Cc1cc2cc(CNC(=O)Cc3cccs3)ccc2n1C | inconclusive [inhibitor, single point] | 
COc1ccccc1NC(=O)c1ccc2[nH]c(C)c(C)c2c1 |  | inactive: 2.94% [at 0.00184 µM]
C=CCC1(CC=C)CCCN1C(=O)C1CCC(=O)N(CCc2ccccc2)C1 (configuration not stated) | inconclusive [inhibitor, partial curve, poor fit] | 
CC(=O)Nc1ccc(S(=O)(=O)N2CCOCC2)cc1 | inactive | 
Cc1ccc(-c2nn3c(C)nnc3s2)cc1NC(=O)c1cccs1 | inconclusive [inhibitor, single point] | 
Clc1ccc(CN2CCc3c([nH]c4ccccc34)C2)cc1Cl | inconclusive [inhibitor, single point] | 
O=S1OCCN1c1ccccc1 (configuration not stated) | inactive | 
CCOc1ccc(N(CC(=O)N/N=C/c2ccc(OC(C)C)cc2)S(C)(=O)=O)cc1 | inactive | 
N#Cc1ccccc1Cn1c(-c2cscn2)nc2ccccc21 | inconclusive [inhibitor, partial curve, poor fit] | 
COc1cccc(NC(=O)N2CCCC2C(=O)NC2CCCC2)c1 (configuration not stated) | inactive | 
Cc1ccc(NC(=O)CN2C(=O)NC(C)(C3CC3)C2=O)c(C)c1 (configuration not stated) | inconclusive [inhibitor, single point] | 
Cc1ccc2c(nc3s/c(=C\c4ccc(-c5ccccc5C(=O)O)o4)c(=O)n32)c1C | inconclusive [inhibitor, partial curve, poor fit] | 
O=P(Nc1c(Cl)cccc1Cl)(c1ccccc1)c1nc2c(s1)CCCC2 (configuration not stated) | inactive | 
Cc1c(O)cccc1C(=O)N[C@@H](CSc1ccccc1)[C@H](O)CN1C[C@H]2CCCC[C@H]2C[C@H]1C(=O)NC(C)(C)C | active: 16.9 µM and active: 6.57 µM | 
O=C(Cc1ccc(Cl)cc1)Nc1ccc(CN2CCCCC2)cc1 | inconclusive [inhibitor, single point] | 
CC1CCCN(C(=O)CN2C3CCC2CC(O)(c2ccc(F)cc2)C3)C1 (configuration not stated) | inconclusive [inhibitor, full curve, poor fit] | 
Cc1ccc(S(=O)(=O)N2CCCCC2)cc1C(=O)Nc1ccccn1 | active: 3.29 µM | 
COC(=O)c1c(-c2c(Cl)cccc2Cl)noc1NC(=O)N(C)C | inactive | 
